# Laboratory results as given in patent US20210038681A1, “PHARMACEUTICAL COMPOSITION FOR TREATING VIRAL HEPATITIS C” (priority 2018, published 2021).
# Key:
# Assay type in all cases: cell-based
# Settings in all cases: Hepatitis C virus, read-out: Mean EC50 (nM)
# [1] = tested on: HCV 1b replicon D168A (NS3)
# [2] = tested on: HCV 1b replicon R262Q + R318W + D320E (NS5A)
# [3] = tested on: HCV 1b replicon S282T (NS5B)
# [4] = tested on: HCV 1b replicon C316Y (NS5B)
Compound,EC50 [1] [nM],EC50 [2] [nM],EC50 [3] [nM],EC50 [4] [nM]
"CC(C)(C)OC(=O)N[C@H]1CCCCC/C=C\[C@@H]2C[C@@]2(C(=O)NS(=O)(=O)C2CC2)NC(=O)[C@@H]2C[C@@H](OC(=O)N3Cc4cccc(F)c4C3)CN2C1=O [ASC08, Danoprevir]",128,0.8,0.6,0.7
"COC(=O)N[C@H](C(=O)N1CCC[C@H]1c1ncc(-c2ccc3cc(-c4ccc5nc([C@@H]6CCCN6C(=O)[C@@H](NC(=O)OC)C(C)C)[nH]c5c4)ccc3c2)[nH]1)C(C)C [ASC16, Ravidasvir]",0.007,0.009,0.008,0.009
